From article PMC12136788 come the findings set out here.

The other results are listed elsewhere or left out.

First the molecules themselves.
B1: chr15:58589816:58589917:-|3pUTR|ENSG00000137845|unk|total|mutant (ssRNA)
RNA: GGGAGUUCUACAGUCCGACGAUCAUUCAUUUGCUGAAGAGCUGGCUUGUACUUUGGCAGGUGUCAUACUUGGUUAUUCUCCUCCGGAUAUUGGCCCAACAAUCUGGGAGUUGUGAAAGGCGCUUCGCUUUUCAGACCUGGGCGCAACAGAGGAUUGAGCAUCA
B2: chr12:122508217:122508450:-|three_prime_utr|ENSG00000111011|control|control|control (ssRNA)
RNA: GGGAGUUCUACAGUCCGACGAUCAGGUUCUGUUCUCAAUGUUGCUGCCCUGUUGGCAUCAGGAACACAAGUAACACCUCAGAUAGCCAUGGCAGCUCAGAUGGCAGCCCUGCAAGCUAAAGCUUUGGCAGAGACAGGAAUAGCCAACAGAGGAUUGAGCAUCA
B3: chr10:95606323:95606429:-|3pUTR|ENSG00000059573|unk|total|mutant (ssRNA)
RNA: GGGAGUUCUACAGUCCGACGAUCCCAUGGCUGCUUUGUGUCACCUCAGUGACUUACAGUCCCCCUUGGCAUUCCGUUGGUACCCGAGCCAGUCAUCCUUAACAAAUCUUUUCACAUUUUAUUUCUUUCACAUGCCGUCAUCUUCAACAGAGGAUUGAGCAUCA
B4: ENSG00000013306:stop:overlap|stop_codon|ENSG00000013306|stop_codon|NA|stop_codon (ssRNA)
RNA: GGGAGUUCUACAGUCCGACGAUCGUCCCCACCUCGGCCCAAACCCAGUCAGUCCCAGCUCCCAGCCCCAACCUCUGCCAGCCUAGGGAUAGGGGGGUGUUCUAGGUCCCCAGACCUGGGACAGCAGCCCUGUACUGGUUCAACCAACAGAGGAUUGAGCAUCA
B5: chr5:75599425:75599511:+|3pUTR|ENSG00000122008|msi1_unk|total|mutant (ssRNA)
RNA: GGGAGUUCUACAGUCCGACGAUCGAACCGCUUAAUUAAGAACUCACAGACUUUGACAAAGUGGUAACCCGACUUUUAAUUACCCGAUUCUUCAAAUCCGGCUUAAUGCCUGCCCGCAUGCCAAUCCAAUCCCAUGACUGAUGUCAACAGAGGAUUGAGCAUCA
B6: ENSG00000138760:stop:overlap|stop_codon|ENSG00000138760|stop_codon|NA|stop_codon (ssRNA)
RNA: GGGAGUUCUACAGUCCGACGAUCACCAAUCUGUUGGAGACCCUAAAAUUGACUUAAUUAGAACAUUAAAUAUUCCUGUAUUGUAGGAGAGAGUGGAUGGAGGUGCUUUGGAGGGGAUGCUGCUGUCUUAAUAUACCUCUGCUCCAACAGAGGAUUGAGCAUCA
B7: chr4:102887774:102887875:+|3pUTR|ENSG00000145354|msi1|total|mutant (ssRNA)
RNA: GGGAGUUCUACAGUCCGACGAUCUUGGUUUUGAUAAUCUGAAGUGUUUUUUUCUCGUUUUGGCCUUCCAAACUGCAUUUGGUCCGGUGAAUUAAGAAAAAUAUUGCCAUCAAGAAUUACUUGUGUUUUCACAGAGACCGACUCCAACAGAGGAUUGAGCAUCA
B8: chr2:24000049:24000165:+|3pUTR|ENSG00000173960|unk|total|mutant (ssRNA)
RNA: GGGAGUUCUACAGUCCGACGAUCGCCGCAUAUGACUGGAAACUAUAUUCAGUGCACUUUCUCCAAAAGACUACCCAGAAAAACCGACUUAUUUUCAAAUACCAGUUAUCAAGAUAUAUUAAACCGCUGUAUUGUUCCGAAUCUCAACAGAGGAUUGAGCAUCA
B9: chr15:50499066:50499164:+|CDS_3pUTR|ENSG00000138592|msi1_unk|FALSE|overlapping (ssRNA)
RNA: GGGAGUUCUACAGUCCGACGAUCUACUUCAUUGGGACCACGAGUAACUGAUGUAGCCACAUAAGGAGACAUAGGUUAUAAACUAGUUAUCUUUUAAAAGGCUCAGCAACACAACUCUUGAAAUGCUUAUCAGGAUAAUGGUAGCAACAGAGGAUUGAGCAUCA
B10: chrX:102369585:102369736:-|CDS|ENSG00000269437|control|control|control (ssRNA)
RNA: GGGAGUUCUACAGUCCGACGAUCUGCGAAAGAAGAAUGAAAUGGCAUAGUGAAGACGAAAUCCGUAUUACCACGUGGAGAAAUAGAAAACCUCCGGAGAGAAAAAUGAGUCAGAACACACAGGAUGGAUACACAAGGAACUGGCAACAGAGGAUUGAGCAUCA
B11: chr7:41961162:41961264:-|3pUTR|ENSG00000106571|unk|FALSE|bound_elsewhere (ssRNA)
RNA: GGGAGUUCUACAGUCCGACGAUCCCCUUGUGUAUCCUGCAGACAUGUAAAAUAAAAUACAAGUUCAUUUUUUUCACCUUUUUUAGAUUUUUUUAAAAAAUAAAAUGUGUAAUCCUUUUUUUAAAAGAAACACAUGUAAAUACACAACAGAGGAUUGAGCAUCA
B12: chr3:64018827:64018930:-|CDS|ENSG00000163636|unk|total|mutant (ssRNA)
RNA: GGGAGUUCUACAGUCCGACGAUCUGAACUCAUGGAUUAUAAAACAUUUGUGACUUAUACUGUCUAUGUCAGUAUGAUUGCCUCCGAAAGACCAGAUCUCAGGGAAAAGGUAAUGACCAAACUUUAAUACUCAAAUUUAAAGACCAACAGAGGAUUGAGCAUCA
B13: chr5:154419581:154419682:+|3pUTR|ENSG00000164574|msi1|total|mutant (ssRNA)
RNA: GGGAGUUCUACAGUCCGACGAUCAAAGGGAUGGGUGUGUCCUCUGAGCACUCUGGCAUUUGUCAUUGCUGAGCCCAUAUCAGCCGGUCCUGGGACUUGACAAAGUAUGUGGGAGGGGAAGGAAGGACAGAACUUGACUGGCUCCAACAGAGGAUUGAGCAUCA
B14: ENSG00000083457:stop:overlap|stop_codon|ENSG00000083457|stop_codon|NA|stop_codon (ssRNA)
RNA: GGGAGUUCUACAGUCCGACGAUCACUUGGAGAGCAUCAGGAAGGCCCAGCUGAAAUCAGAGAAUCUGCUCGAAGAAGAGAAUUAGGACCUGCUAUCCACUGGGAGAGGCUAUCAGCCAGUCCUGGGACUUGGAGACCCAGCAUCAACAGAGGAUUGAGCAUCA
B15: chr7:77749912:77750028:+|CDS|ENSG00000187257|unk|FALSE|unique (ssRNA)
RNA: GGGAGUUCUACAGUCCGACGAUCUGCAGCUUUCUACGUGAUGGGUAUUGUUCAUGGGGCAGCUACUUAUUUACCUGACUUUUUAGACUAUUUUUCAUUUAAUUUUCCCAAUUCACCAGUGAAAAUGGAGAUAUUGGGAAAGAACAACAGAGGAUUGAGCAUCA
B16: ENSG00000070961:be:win_2201|CDS|ENSG00000070961|bound_else_gene|NA|bound_elsewhere_windowed (ssRNA)
RNA: GGGAGUUCUACAGUCCGACGAUCUAGAAGGUAAAGAUUUUAACAGAAGAAUACGAAAUGAAAAAGGAGAGAUUGAGCAAGAGAGGAUAGACAAGAUUUGGCCAAAACUUCGAGUACUUGCAAGAUCAUCUCCUACUGAUAAGCCAACAGAGGAUUGAGCAUCA
B17: chr5:116443554:116446612:-|three_prime_utr|ENSG00000092421|control|control|control (ssRNA)
RNA: GGGAGUUCUACAGUCCGACGAUCCCGCCAGUGUUACAGCUUUCUGUUGCAGCAGAUAAAUGCCAUGUUGGGCAACUAUGUCAUAGAUUUCUGCUCCUCCUCUCUUUUAAUGAAAUAACGUGACCGUUAACGCAAGUAACUCUUCAACAGAGGAUUGAGCAUCA
B18: chr1:42278343:42278454:-|CDS|ENSG00000198815|unk|FALSE|bound_elsewhere (ssRNA)
RNA: GGGAGUUCUACAGUCCGACGAUCAAAAAGAAAAUGACUUUAAGUGAAAUUUAUCAGUGGAUUUGUGAUAACUUCCCAUAUUAUAGAGAGGCUGGCAGUGGUUGGAAGGUAAGGAUUUUAUUUAAAUUAUUACUUUUAUGAAGUCAACAGAGGAUUGAGCAUCA
B19: chr1:94983078:94983306:-|CDS|ENSG00000172339|control|control|control (ssRNA)
RNA: GGGAGUUCUACAGUCCGACGAUCCCUUGGGAUACUAGGAAUAAAGAAAGUGAUCAUUGUCUACGUUGAAAGCAUCUGCCGUGUAGAAACGUUAUCCAUGUCCGGAAAGAUUCUGUUUCAUCUCUCAGAUUACUUCAUUGUUCACAACAGAGGAUUGAGCAUCA
B20: chr11:62152232:62152344:+|3pUTR|ENSG00000149503|unk|total|mutant (ssRNA)
RNA: GGGAGUUCUACAGUCCGACGAUCUGCUCUGUAAACCGUUGUUUUAAUUCCGCUGAAUGUCCGCAUUUCCGUCUUUGGCAUUUCCGCGUUUGGGAGGCCGAUUAAUAAAGUAUAUUCCUUCAAGCCUGCUGUUGAUACCAUGAACAACAGAGGAUUGAGCAUCA
B21: chr7:73478007:73478118:-|CDS|ENSG00000009954|unk|total|mutant (ssRNA)
RNA: GGGAGUUCUACAGUCCGACGAUCAAAGGCACGCAGAAGAUGACACGAGCCCCACGGAAUUCUGGGGGUACACCCCGGACCUCCCGUAAACCUCAUAAACAUCUGCCUCCUGCAGCCCUACACCUCAUUGCAUACUACAAAGAACAACAGAGGAUUGAGCAUCA
B22: ENSG00000133640:stop:overlap|stop_codon|ENSG00000133640|stop_codon|NA|stop_codon (ssRNA)
RNA: GGGAGUUCUACAGUCCGACGAUCAGGCACACAGACACUCAGCAGGAUCUUCAAGUAAGUUGUGGUUUCCUUCAAAAUUAAUUUAGAAAUCACAAACGAAUUGAUGGAACCUAAUGCCAACAAGCAUUCUUUUUCAGAUAGGGGCAACAGAGGAUUGAGCAUCA

The assay has as its target MSI1 full-length (mouse, UniProt Q61474 1-362). Put plainly: nsRBNS (natural sequence RNA bind-n-seq); RBNS binding buffer (assumed for nsRBNS): 25 mM Tris pH 7.5, 150 mM KCl, 3 mM MgCl2, 0.01% Triton X-100, 500 ug/ml BSA, 20 U/ml SUPERase-In, 4 C; UNK is unkempt and MSI1 is Musashi-1; names of the RNAs are library labels; protein concentration not given here; high values mean tight binding.
Sequence of UniProt Q61474 (Q61474 whole entry): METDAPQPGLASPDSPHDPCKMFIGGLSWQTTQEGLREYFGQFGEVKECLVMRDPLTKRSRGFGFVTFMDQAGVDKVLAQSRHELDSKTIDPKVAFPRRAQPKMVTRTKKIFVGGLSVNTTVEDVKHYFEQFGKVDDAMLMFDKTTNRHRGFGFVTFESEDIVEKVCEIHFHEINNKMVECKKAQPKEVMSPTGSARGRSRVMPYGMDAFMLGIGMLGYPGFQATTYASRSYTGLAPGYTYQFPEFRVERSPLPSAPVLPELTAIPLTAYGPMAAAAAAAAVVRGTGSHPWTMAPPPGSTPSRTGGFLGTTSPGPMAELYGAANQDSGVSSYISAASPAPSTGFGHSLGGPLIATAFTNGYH
For B1, the binding signal worked out at 0.328 enrichment R.
B2 returned a binding signal of 0.393 enrichment R.
With B3, the binding signal is 1.96 enrichment R.
On to B4, for which the binding signal was 0.534 enrichment R.
The figure for B5 is 0.4 enrichment R; for B6 it is 0.695 enrichment R.
As for B7, the binding signal stood at 0.261 enrichment R.
The molecule B8 displayed a binding signal of 1.54 enrichment R.
Next, B9: 0.769 enrichment R; B10: 0.89 enrichment R; B11: 1.25 enrichment R.
On to B12, for which the binding signal is 0.324 enrichment R.
With B13, the binding signal turned out to be 0.421 enrichment R.
Next, B14: 0.592 enrichment R; B15: 0.776 enrichment R.
Next, B16: 1.49 enrichment R; B17: 0.417 enrichment R.
The figure for B18 is 3.1 enrichment R; for B19 it is 0.232 enrichment R.
Take B20: the binding signal was found to be 0.406 enrichment R.
The figure for B21 is 0.327 enrichment R; for B22 it is 0.443 enrichment R.
